In the supplement of paper PMC8728848:
The list shows a part of the results.

Assays:
Assay in all cases: glycan array binding signal (z-score within array); higher = stronger binding
Conditions in all cases: glycan notation: IUPAC condensed, linker removed
[1] = biological target: Fuc(a1-2)Gal6S(b1-3)GlcNAc
Summary of the method: (§1)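 The binding signal is a Z-score computed within each array and averaged over linkers. Arrays of the same protein sequence at different concentrations or buffers were also averaged together. Data originate from 3228 arrays in the Consortium for Functional Glycomics database, kept only where the protein sequence was available.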

[2] = biological target: Fuc(a1-2)Gal6S(b1-3)GlcNAc6S
Summary of the method: as §1

[3] = biological target: Fuc(a1-2)Gal6S(b1-4)Glc
Summary of the method: as §1

[4] = biological target: Fuc(a1-2)Gal6S(b1-4)Glc6S
Summary of the method: as §1

[5] = biological target: Fuc(a1-2)GlcNAc
Summary of the method: as §1

[6] = biological target: Fuc(a1-2)[Gal(a1-3)]Gal
Summary of the method: as §1

[7] = biological target: Fuc(a1-2)[Gal(a1-3)]Gal(b1-3)GalNAc
Summary of the method: as §1

[8] = biological target: Fuc(a1-2)[Gal(a1-3)]Gal(b1-3)GalNAc(b1-3)Gal(a1-4)Gal(b1-4)Glc
Summary of the method: as §1

[9] = biological target: Fuc(a1-2)[Gal(a1-3)]Gal(b1-3)GlcNAc
Summary of the method: as §1

[10] = biological target: Fuc(a1-2)[Gal(a1-3)]Gal(b1-3)GlcNAc(b1-2)Man(a1-3)[Fuc(a1-2)[Gal(a1-3)]Gal(b1-3)GlcNAc(b1-2)Man(a1-6)]Man(b1-4)GlcNAc(b1-4)GlcNAc
Summary of the method: as §1

[11] = biological target: Fuc(a1-2)[Gal(a1-3)]Gal(b1-3)GlcNAc(b1-2)Man(a1-3)[Fuc(a1-2)[Gal(a1-3)]Gal(b1-3)GlcNAc(b1-2)Man(a1-6)]Man(b1-4)GlcNAc(b1-4)[Fuc(a1-6)]GlcNAc
Summary of the method: as §1

[12] = biological target: Fuc(a1-2)[Gal(a1-3)]Gal(b1-3)GlcNAc(b1-3)GalNAc
Summary of the method: as §1

[13] = biological target: Fuc(a1-2)[Gal(a1-3)]Gal(b1-3)GlcNAc(b1-6)GalNAc
Summary of the method: as §1

[14] = biological target: Fuc(a1-2)[Gal(a1-3)]Gal(b1-4)Glc
Summary of the method: as §1

[15] = biological target: Fuc(a1-2)[Gal(a1-3)]Gal(b1-4)GlcNAc
Summary of the method: as §1

[16] = biological target: Fuc(a1-2)[Gal(a1-3)]Gal(b1-4)GlcNAc(b1-2)Man
Summary of the method: as §1

[17] = biological target: Fuc(a1-2)[Gal(a1-3)]Gal(b1-4)GlcNAc(b1-2)Man(a1-3)[Fuc(a1-2)[Gal(a1-3)]Gal(b1-4)GlcNAc(b1-2)Man(a1-6)]Man(b1-4)GlcNAc(b1-4)GlcNAc
Summary of the method: as §1

[18] = biological target: Fuc(a1-2)[Gal(a1-3)]Gal(b1-4)GlcNAc(b1-2)Man(a1-3)[Fuc(a1-2)[Gal(a1-3)]Gal(b1-4)GlcNAc(b1-2)Man(a1-6)]Man(b1-4)GlcNAc(b1-4)[Fuc(a1-6)]GlcNAc
Summary of the method: as §1

[19] = biological target: Fuc(a1-2)[Gal(a1-3)]Gal(b1-4)GlcNAc(b1-3)GalNAc
Summary of the method: as §1

[20] = biological target: Fuc(a1-2)[Gal(a1-3)]Gal(b1-4)GlcNAc(b1-3)[Fuc(a1-2)[Gal(a1-3)]Gal(b1-4)GlcNAc(b1-6)]GalNAc
Summary of the method: as §1

[21] = biological target: Fuc(a1-2)[Gal(a1-3)]Gal(b1-4)GlcNAc(b1-6)GalNAc
Summary of the method: as §1

[22] = biological target: Fuc(a1-2)[Gal(a1-3)]Gal(b1-4)[Fuc(a1-3)]Glc
Summary of the method: as §1

[23] = biological target: Fuc(a1-2)[Gal(a1-3)]Gal(b1-4)[Fuc(a1-3)]GlcNAc
Summary of the method: as §1

[24] = biological target: Fuc(a1-2)[Gal(a1-3)]Gal(b1-4)[Fuc(a1-3)]GlcNAc(b1-3)GalNAc
Summary of the method: as §1

[25] = biological target: Fuc(a1-2)[Gal(a1-4)]Gal(b1-4)GlcNAc
Summary of the method: as §1

[26] = biological target: Fuc(a1-2)[GalNAc(a1-3)]Gal
Summary of the method: as §1

[27] = biological target: Fuc(a1-2)[GalNAc(a1-3)]Gal(b1-3)GalNAc(a1-3)[Fuc(a1-2)]Gal(b1-4)GlcNAc
Summary of the method: as §1

[28] = biological target: Fuc(a1-2)[GalNAc(a1-3)]Gal(b1-3)GalNAc(b1-3)Gal(a1-4)Gal(b1-4)Glc
Summary of the method: as §1

[29] = biological target: Fuc(a1-2)[GalNAc(a1-3)]Gal(b1-3)GlcNAc
Summary of the method: as §1

[30] = biological target: Fuc(a1-2)[GalNAc(a1-3)]Gal(b1-3)GlcNAc(b1-2)Man(a1-3)[Fuc(a1-2)[GalNAc(a1-3)]Gal(b1-3)GlcNAc(b1-2)Man(a1-6)]Man(b1-4)GlcNAc(b1-4)GlcNAc
Summary of the method: as §1

[31] = biological target: Fuc(a1-2)[GalNAc(a1-3)]Gal(b1-3)GlcNAc(b1-2)Man(a1-3)[Fuc(a1-2)[GalNAc(a1-3)]Gal(b1-3)GlcNAc(b1-2)Man(a1-6)]Man(b1-4)GlcNAc(b1-4)[Fuc(a1-6)]GlcNAc
Summary of the method: as §1

[32] = biological target: Fuc(a1-2)[GalNAc(a1-3)]Gal(b1-3)GlcNAc(b1-3)GalNAc
Summary of the method: as §1

[33] = biological target: Fuc(a1-2)[GalNAc(a1-3)]Gal(b1-3)GlcNAc(b1-6)GalNAc
Summary of the method: as §1

[34] = biological target: Fuc(a1-2)[GalNAc(a1-3)]Gal(b1-4)Glc
Summary of the method: as §1

[35] = biological target: Fuc(a1-2)[GalNAc(a1-3)]Gal(b1-4)GlcNAc
Summary of the method: as §1

[36] = biological target: Fuc(a1-2)[GalNAc(a1-3)]Gal(b1-4)GlcNAc(b1-2)Man
Summary of the method: as §1

[37] = biological target: Fuc(a1-2)[GalNAc(a1-3)]Gal(b1-4)GlcNAc(b1-2)Man(a1-3)[Fuc(a1-2)[GalNAc(a1-3)]Gal(b1-4)GlcNAc(b1-2)Man(a1-6)]Man(b1-4)GlcNAc(b1-4)GlcNAc
Summary of the method: as §1

[38] = biological target: Fuc(a1-2)[GalNAc(a1-3)]Gal(b1-4)GlcNAc(b1-2)Man(a1-3)[Fuc(a1-2)[GalNAc(a1-3)]Gal(b1-4)GlcNAc(b1-2)Man(a1-6)]Man(b1-4)GlcNAc(b1-4)[Fuc(a1-6)]GlcNAc
Summary of the method: as §1

[39] = biological target: Fuc(a1-2)[GalNAc(a1-3)]Gal(b1-4)GlcNAc(b1-3)Gal(b1-4)GlcNAc
Summary of the method: as §1

[40] = biological target: Fuc(a1-2)[GalNAc(a1-3)]Gal(b1-4)GlcNAc(b1-3)Gal(b1-4)GlcNAc(b1-3)Gal(b1-4)GlcNAc
Summary of the method: as §1

[41] = biological target: Fuc(a1-2)[GalNAc(a1-3)]Gal(b1-4)GlcNAc(b1-3)GalNAc
Summary of the method: as §1

[42] = biological target: Fuc(a1-2)[GalNAc(a1-3)]Gal(b1-4)GlcNAc(b1-3)[Fuc(a1-2)[GalNAc(a1-3)]Gal(b1-4)GlcNAc(b1-6)]GalNAc
Summary of the method: as §1

[43] = biological target: Fuc(a1-2)[GalNAc(a1-3)]Gal(b1-4)GlcNAc(b1-6)GalNAc
Summary of the method: as §1

[44] = biological target: Fuc(a1-2)[GalNAc(a1-3)]Gal(b1-4)[Fuc(a1-3)]GlcNAc
Summary of the method: as §1

[45] = biological target: Fuc(a1-2)[GalNAc(a1-3)]Gal(b1-4)[Fuc(a1-3)]GlcNAc(b1-3)GalNAc
Summary of the method: as §1

B1: WGA (Triticum vulgare) (protein)
chain: QRCGEQGSNMECPNNLCCSQYGYCGMGGDYCGKGCQNGACWTSKRCGSQAGGATCPNNHCCSQYGHCGFGAEYCGAGCQGGPCRADIKCGSQSGGKLCPNNLCCSQWGFCGLGSEFCGGGCQSGACSTDKPCGKDAGGRVCTNNYCCSKWGSCGIGPGYCGAGCQSGGCDAVFAGAITANSTLLAE
With B1 the “glycan array binding signal (z-score)” value [1] was -0.341, the “glycan array binding signal (z-score)” value [2] was -0.355 and the “glycan array binding signal (z-score)” value [3] was -0.35. For the same binder, the “glycan array binding signal (z-score)” value [4] was -0.336, the “glycan array binding signal (z-score)” value [5] was -0.719 and the “glycan array binding signal (z-score)” value [6] was -0.356. For the same binder, the “glycan array binding signal (z-score)” value [7] was -0.353, the “glycan array binding signal (z-score)” value [8] was -0.364 and the “glycan array binding signal (z-score)” value [9] was -0.284. For the same binder, the “glycan array binding signal (z-score)” value [10] was -0.323, the “glycan array binding signal (z-score)” value [11] was -0.294 and the “glycan array binding signal (z-score)” value [12] was -0.331. The “glycan array binding signal (z-score)” value [13] was -0.324, the “glycan array binding signal (z-score)” value [14] was -0.359 and the “glycan array binding signal (z-score)” value [15] was 0.426. The “glycan array binding signal (z-score)” value [16] was -0.357, the “glycan array binding signal (z-score)” value [17] was -0.161 and the “glycan array binding signal (z-score)” value [18] was -0.292. For the same binder, the “glycan array binding signal (z-score)” value [19] was -0.339, the “glycan array binding signal (z-score)” value [20] was -0.314 and the “glycan array binding signal (z-score)” value [21] was -0.326. The “glycan array binding signal (z-score)” value [22] was -0.309, the “glycan array binding signal (z-score)” value [23] was -0.304 and the “glycan array binding signal (z-score)” value [24] was -0.277. For the same binder, the “glycan array binding signal (z-score)” value [25] was 0.509, the “glycan array binding signal (z-score)” value [26] was -0.082 and the “glycan array binding signal (z-score)” value [27] was 0.738. The “glycan array binding signal (z-score)” value [28] was -0.368, the “glycan array binding signal (z-score)” value [29] was -0.387 and the “glycan array binding signal (z-score)” value [30] was -0.181. For the same binder, the “glycan array binding signal (z-score)” value [31] was -0.309, the “glycan array binding signal (z-score)” value [32] was -0.299 and the “glycan array binding signal (z-score)” value [33] was -0.365. The “glycan array binding signal (z-score)” value [34] was -0.357, the “glycan array binding signal (z-score)” value [35] was 1.1 and the “glycan array binding signal (z-score)” value [36] was -0.347. The “glycan array binding signal (z-score)” value [37] was 0.266, the “glycan array binding signal (z-score)” value [38] was -0.283 and the “glycan array binding signal (z-score)” value [39] was 1.17. The “glycan array binding signal (z-score)” value [40] was 0.902, the “glycan array binding signal (z-score)” value [41] was -0.339 and the “glycan array binding signal (z-score)” value [42] was -0.231. For the same binder, the “glycan array binding signal (z-score)” value [43] was 0.594, the “glycan array binding signal (z-score)” value [44] was -0.26 and the “glycan array binding signal (z-score)” value [45] was -0.241.
